Experiment [1] has as its target T1, hCOG8sir-mCh-ActA (human) (UniProt Q96MW5).
T1 sequence: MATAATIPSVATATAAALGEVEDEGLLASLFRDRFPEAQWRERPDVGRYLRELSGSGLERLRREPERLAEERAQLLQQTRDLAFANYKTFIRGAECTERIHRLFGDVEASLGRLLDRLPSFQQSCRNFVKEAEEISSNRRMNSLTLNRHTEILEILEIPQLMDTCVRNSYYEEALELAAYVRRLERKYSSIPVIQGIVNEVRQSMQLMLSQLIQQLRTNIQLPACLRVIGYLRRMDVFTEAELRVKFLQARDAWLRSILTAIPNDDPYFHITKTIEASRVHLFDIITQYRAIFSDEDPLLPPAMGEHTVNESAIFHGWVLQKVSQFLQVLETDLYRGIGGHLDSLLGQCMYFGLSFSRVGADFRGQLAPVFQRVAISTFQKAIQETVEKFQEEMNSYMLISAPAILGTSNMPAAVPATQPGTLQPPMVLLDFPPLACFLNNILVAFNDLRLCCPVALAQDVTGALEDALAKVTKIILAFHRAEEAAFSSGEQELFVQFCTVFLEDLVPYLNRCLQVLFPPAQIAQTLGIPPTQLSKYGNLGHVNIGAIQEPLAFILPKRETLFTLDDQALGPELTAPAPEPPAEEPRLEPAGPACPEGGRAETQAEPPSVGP
Briefly: mitochondria relocalization assay; COG8 constructs targeted to mitochondria by GFP-ActA or mCherry-ActA co-expressed with 3Myc-tagged COG1 in HeLa cells; fixed 24 h after transfection, stained for Myc, confocal microscopy.

In experiment [2] the target is T2, hCOG8sir 1–406 GFP-ActA (human) (UniProt Q96MW5).
T2 sequence: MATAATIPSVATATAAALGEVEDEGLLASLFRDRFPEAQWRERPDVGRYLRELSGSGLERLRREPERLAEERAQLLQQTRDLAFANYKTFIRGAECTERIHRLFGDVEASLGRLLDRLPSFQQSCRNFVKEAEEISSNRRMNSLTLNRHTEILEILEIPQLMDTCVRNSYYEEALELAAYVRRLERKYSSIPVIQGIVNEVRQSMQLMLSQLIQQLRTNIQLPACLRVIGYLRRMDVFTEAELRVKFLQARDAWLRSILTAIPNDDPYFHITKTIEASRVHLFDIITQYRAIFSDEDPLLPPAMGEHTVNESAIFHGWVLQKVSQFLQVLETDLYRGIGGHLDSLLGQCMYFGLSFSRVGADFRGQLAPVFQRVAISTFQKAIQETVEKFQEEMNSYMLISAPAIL
The description is as above.

The target of experiment [3] is T3, hCOG8sir Δ8–406 GFP-ActA (human) (UniProt Q96MW5).
T3 sequence: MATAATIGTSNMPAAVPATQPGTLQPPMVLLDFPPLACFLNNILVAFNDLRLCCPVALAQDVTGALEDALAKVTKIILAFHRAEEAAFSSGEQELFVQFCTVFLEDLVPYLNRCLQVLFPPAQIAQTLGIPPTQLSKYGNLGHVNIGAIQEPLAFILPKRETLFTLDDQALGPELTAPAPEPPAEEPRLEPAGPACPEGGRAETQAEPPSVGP
The description is as above.

The target of experiment [4] is T4, COG8sir 1–136 GFP-ActA (human) (UniProt Q96MW5).
T4 sequence: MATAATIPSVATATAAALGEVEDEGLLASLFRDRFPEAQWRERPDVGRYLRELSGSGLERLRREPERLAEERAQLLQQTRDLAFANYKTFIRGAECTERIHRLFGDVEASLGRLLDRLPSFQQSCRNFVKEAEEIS
The description is as above.

In experiment [5] the target is T5, hCOG8sir-GFP-ActA (human) (UniProt Q96MW5).
T5 sequence: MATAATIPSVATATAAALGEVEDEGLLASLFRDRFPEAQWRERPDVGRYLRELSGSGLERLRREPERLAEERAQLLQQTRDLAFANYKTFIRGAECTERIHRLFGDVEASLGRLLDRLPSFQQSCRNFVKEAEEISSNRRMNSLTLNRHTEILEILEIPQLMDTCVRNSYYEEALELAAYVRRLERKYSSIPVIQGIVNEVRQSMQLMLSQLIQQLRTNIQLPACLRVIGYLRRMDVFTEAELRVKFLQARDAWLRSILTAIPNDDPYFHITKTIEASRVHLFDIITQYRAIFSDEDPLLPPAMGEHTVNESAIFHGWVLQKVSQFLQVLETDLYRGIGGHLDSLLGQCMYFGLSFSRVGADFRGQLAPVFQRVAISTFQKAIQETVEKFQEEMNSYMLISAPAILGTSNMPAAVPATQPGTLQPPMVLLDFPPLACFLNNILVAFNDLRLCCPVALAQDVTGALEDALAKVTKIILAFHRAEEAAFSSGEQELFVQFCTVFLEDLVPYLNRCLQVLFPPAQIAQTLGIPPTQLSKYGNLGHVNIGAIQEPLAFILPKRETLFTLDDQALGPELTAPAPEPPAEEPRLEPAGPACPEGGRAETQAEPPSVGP
The experiment is described as above.

Experiment [6] addresses T6, GFP-hGS15 (human) (UniProt Q9NYM9).
T6 sequence: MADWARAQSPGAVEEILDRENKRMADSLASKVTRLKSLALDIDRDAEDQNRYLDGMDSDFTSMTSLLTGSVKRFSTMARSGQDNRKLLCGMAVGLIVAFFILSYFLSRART
Briefly: co-IP; GFP IP on GBP (GFP binding protein) beads from lysates of transfected HEK293T cells (50 mM Tris pH 7.4, 150 mM NaCl, 1% Triton X-100), 2 h at room temperature; blotted for COG8, Myc and GFP.

Results are given in words; binding and its absence hold for the method and conditions named. For some of these results: In cells and extracts the contact can be indirect. Some binding calls cover weakened binding; strength is not graded here. Sequences can lack the tags named with a protein.

B1: hCOG1 1-702-3Myc (domain or fragment, UniProt Q8WTW3 1-702)
chain: MATAATSPALKRLDLRDPAALFETHGAEEIRGLERQVRAEIEHKKEELRQMVGERYRDLIEAADTIGQMRRCAVGLVDAVKATDQYCARLRQAGSAAPRPPRAQQPQQPSQEKFYSMAAQIKLLLEIPEKIWSSMEASQCLHATQLYLLCCHLHSLLQLDSSSSRYSPVLSRFPILIRQVAAASHFRSTILHESKMLLKCQGVSDQAVAEALCSIMLLEESSPRQALTDFLLARKATIQKLLNQPHHGAGIKAQICSLVELLATTLKQAHALFYTLPEGLLPDPALPCGLLFSTLETITGQHPAGKGTGVLQEEMKLCSWFKHLPASIVEFQPTLRTLAHPISQEYLKDTLQKWIHMCNEDIKNGITNLLMYVKSMKGLAGIRDAMWELLTNESTNHSWDVLCRRLLEKPLLFWEDMMQQLFLDRLQTLTKEGFDSISSSSKELLVSALQELESSTSNSPSNKHIHFEYNMSLFLWSESPNDLPSDAAWVSVANRGQFASSGLSMKAQAISPCVQNFCSALDSKLKVKLDDLLAYLPSDDSSLPKDVSPTQAKSSAFDRYADAGTVQEMLRTQSVACIKHIVDCIRAELQSIEEGVQGQQDALNSAKLHSVLFMARLCQSLGELCPHLKQCILGKSESSEKPAREFRALRKQGKVKTQEIIPTQAKWQEVKEVLLQQSVMGYQVWSSAVVKVLIHGFTQSLL
With B1, in experiment [1], the binding result is on record as “no binding”.

B2: hCOG1-3Myc (protein, UniProt Q8WTW3 1-980)
chain: MATAATSPALKRLDLRDPAALFETHGAEEIRGLERQVRAEIEHKKEELRQMVGERYRDLIEAADTIGQMRRCAVGLVDAVKATDQYCARLRQAGSAAPRPPRAQQPQQPSQEKFYSMAAQIKLLLEIPEKIWSSMEASQCLHATQLYLLCCHLHSLLQLDSSSSRYSPVLSRFPILIRQVAAASHFRSTILHESKMLLKCQGVSDQAVAEALCSIMLLEESSPRQALTDFLLARKATIQKLLNQPHHGAGIKAQICSLVELLATTLKQAHALFYTLPEGLLPDPALPCGLLFSTLETITGQHPAGKGTGVLQEEMKLCSWFKHLPASIVEFQPTLRTLAHPISQEYLKDTLQKWIHMCNEDIKNGITNLLMYVKSMKGLAGIRDAMWELLTNESTNHSWDVLCRRLLEKPLLFWEDMMQQLFLDRLQTLTKEGFDSISSSSKELLVSALQELESSTSNSPSNKHIHFEYNMSLFLWSESPNDLPSDAAWVSVANRGQFASSGLSMKAQAISPCVQNFCSALDSKLKVKLDDLLAYLPSDDSSLPKDVSPTQAKSSAFDRYADAGTVQEMLRTQSVACIKHIVDCIRAELQSIEEGVQGQQDALNSAKLHSVLFMARLCQSLGELCPHLKQCILGKSESSEKPAREFRALRKQGKVKTQEIIPTQAKWQEVKEVLLQQSVMGYQVWSSAVVKVLIHGFTQSLLLDDAGSVLATATSWDELEIQEEAESGSSVTSKIRLPAQPSWYVQSFLFSLCQEINRVGGHALPKVTLQEMLKSCMVQVVAAYEKLSEEKQIKKEGAFPVTQNRALQLLYDLRYLNIVLTAKGDEVKSGRSKPDSRIEKVTDHLEALIDPFDLDVFTPHLNSNLHRLVQRTSVLFGLVTGTENQLAPRSSTFNSQEPHNILPLASSQIRFGLLPLSMTSTRKAKSTRNIETKAQVVPPARSTAGDPTVPGSLFRQLVSEEDNTSAPSLFKLGWLSSMTK
As for B2, the binding result in experiment [2] was “binds”; in experiment [3] it was “no binding”; in experiment [1], “binds”; in experiment [4], “binds”; in experiment [5], “binds”.

B3: COG8 (endogenous, HEK293T) (protein, UniProt Q96MW5 1-612)
chain: MATAATIPSVATATAAALGEVEDEGLLASLFRDRFPEAQWRERPDVGRYLRELSGSGLERLRREPERLAEERAQLLQQTRDLAFANYKTFIRGAECTERIHRLFGDVEASLGRLLDRLPSFQQSCRNFVKEAEEISSNRRMNSLTLNRHTEILEILEIPQLMDTCVRNSYYEEALELAAYVRRLERKYSSIPVIQGIVNEVRQSMQLMLSQLIQQLRTNIQLPACLRVIGYLRRMDVFTEAELRVKFLQARDAWLRSILTAIPNDDPYFHITKTIEASRVHLFDIITQYRAIFSDEDPLLPPAMGEHTVNESAIFHGWVLQKVSQFLQVLETDLYRGIGGHLDSLLGQCMYFGLSFSRVGADFRGQLAPVFQRVAISTFQKAIQETVEKFQEEMNSYMLISAPAILGTSNMPAAVPATQPGTLQPPMVLLDFPPLACFLNNILVAFNDLRLCCPVALAQDVTGALEDALAKVTKIILAFHRAEEAAFSSGEQELFVQFCTVFLEDLVPYLNRCLQVLFPPAQIAQTLGIPPTQLSKYGNLGHVNIGAIQEPLAFILPKRETLFTLDDQALGPELTAPAPEPPAEEPRLEPAGPACPEGGRAETQAEPPSVGP
As to B3, in experiment [6], the binding entry was “binds”.

The values above are taken from article PMC4935880, “COG lobe B sub-complex engages v-SNARE GS15 and functions via regulated interaction with lobe A sub-complex” (Scientific Reports, 2016).
